Screen size: about 150,000 compounds; about 540 (0.36%) showed an effect of 50% or more. The list shows a part of the results.
tested on: Plasmodium falciparum; assay: Primary screen in NF54 nanoGlo assay, in single point, at 2uM, 72h; a lower Z score goes with more inhibition; type: functional, Erythrocyte; settings: timepoint 72 hour

Structure (SMILES)	% Inhibition [%]	Z score
OC1(O)C[C@@H](n2ccnc2)C2CO[C@@H]1O2	-14	1.84
COc1cccc(C2CC2C(=O)N(CCc2ccccc2)c2nc(C)cs2)c1 (centres undefined)	-6	0.9
COC(CNC(=O)N1CCC[C@@H]1c1csc(C)n1)c1ccccc1 (some centres undefined)	-17	2.69
CC(C)[C@@H](NC(=O)c1cc(Br)ccc1F)C(=O)O	-7	1.17
O=C(NCCCN1CCCC1)c1cc2n(n1)CCCN(Cc1ccc(F)cc1)C2=O	-5	0.49
COCCOCC(=O)N1CCCCC[C@@H]1Cc1cccs1	-1	0.12
CCOC(=O)C1C(N)CCN1C(=O)OC(C)(C)C (centres undefined)	1	-0.17
COCCNC(=O)C1CCN(c2cc(C)nc3cc(-c4ccc(Cl)cc4)nn23)CC1	13	-1.52
CCNc1nc(C(=O)NCC23CCCN2CCC3)cs1	-9	1.64
Cc1[nH][nH]c(=O)c1CC(=O)N[C@H]1CC[C@@H]2CCC[C@@H]21	0	0.05
C=CCN1CC[C@H](n2cnc(C#N)n2)C1=O	-15	1.36
O=C(NCCc1cscn1)[C@H]1CCN(c2ccccc2Cl)C1	-6	1.04
O=C(O)C1CC(c2ccccc2)CN(C(=O)C2CCCC2)C1 (centres undefined)	-14	1.23
CO[C@H]1[C@@H]2CC[C@H]1CN(C(=O)CCCn1cncn1)C2	2	-0.34
Cc1nc(CC(=O)N(CC#Cc2ccccc2)C2CCCC2)cs1	-15	1.54
Cc1cccc(C)c1C(=O)N(C)CC(C)(CO)CO	-9	1.04
O=C(CC1CCCC(CC(=O)c2ccccc2)N1)c1ccccc1 (centres undefined)	-46	5.44
CCC[C@]1(CO)CCCN1C(=O)Nc1cnc(OC)cn1	2	-0.22
Cc1ccc(-c2nc(-c3ccc(-c4ccccc4)cc3)c(-c3ccc(-c4ccccc4)cc3)[nH]2)cc1	-17	1.81
CCn1cc(C(=O)NS(=O)(=O)[C@@H](C)CC(C)C)c(C(C)C)n1	3	-0.32
CCn1c(-n2nc(C)nc2CCNC(C)=O)nc2ccccc21	-8	0.9
N#Cc1c(-c2cccn2-c2ncccn2)cc(-c2ccc[nH]2)nc1N	-18	2.76

Structure (SMILES)	% Inhibition [%]	Z score
O=C(Cc1cccc(N(Cc2ccc(F)cc2)C(=O)c2cccs2)c1)NCC1CC1	2	-0.24
CC(C)CN1CCCN(Cc2cc3ccc(Cl)cc3nc2O)CC1	-26	2.6
C[C@]1(C(=O)N2CCc3cncnc3C2)CCCN(C(=O)c2ccccc2)C1	-1	0.16
Cc1ccc(CC(=O)NC2(C#N)CCC(C(C)(C)C)CC2)cn1 (centres undefined)	-11	1.98
COCC1CN(C(=O)N[C@@H](C)c2ccc(OC(F)F)cc2)C1	-8	1.48
CCCC(C)(CCCNC(=O)[C@@H]1Cc2ccccc2N1C(C)=O)C1OCCO1 (some centres undefined)	-9	1.42
O=C(c1cccc(S(=O)(=O)N2CCOCC2)c1)N1CCC[C@H]1c1nnc2ccccn12	3	-0.33
Cc1cnc(N2CCC(OCc3cccnc3)CC2)nc1N	11	-2.21
O=C1OCCN1CCCn1cc(Cl)cn1	7	-1.05
O=C(N[C@H]1CCC[C@H]1C(=O)O)c1ccc(-c2ccccc2)[nH]1	-7	0.87
Cn1ccnc1CN[C@@H]1CO[C@H](CNC(=O)c2ccc(F)cc2)[C@H]1O	-5	0.98
CNC(=O)[C@H]1CCN(C(=O)NC2CCCCC2)C1	2	-0.2
C#C[C@H](C)NC(=O)COC1CCC(NC(=O)OC(C)(C)C)CC1 (some centres undefined)	-10	1.96
CC(C)COC(C)C(=O)NC(C)c1cccs1 (centres undefined)	-17	1.77
CC1CC1c1ccc(CN(C)C(=O)CC(F)(F)F)o1 (centres undefined)	-7	0.9
COc1cccc(-c2nc(C)c(C(=O)NC[C@@H]3CCCN4CCCCC34)s2)c1 (some centres undefined)	-1	0.17
Cc1nc(CNC(=O)N2CCC(CCc3ccc(F)cc3F)CC2)no1	-9	1.16
Cc1cc(NC(=O)COc2c(Cl)c(Cl)c(Cl)c(Cl)c2Cl)n(C)n1	-15	1.62
CCOc1ccc(NC(=O)Cn2ccn(-c3ccc(OC)cc3)c2=O)cc1	-2	0.39
CCCN(C(=O)Nc1cccnc1)c1ccccc1	-19	1.79
COCCn1ccc2ccn(Cc3nc(-c4ccncc4)no3)c(=O)c21	-27	2.36
Cc1nn(S(=O)(=O)N(C)C)c(C)c1C	4	-0.69

Structure (SMILES)	% Inhibition [%]	Z score
Cc1oc(C(C)C)cc1C(=O)N1C[C@@H](CN2CCCCC2)[C@@H](CO)C1	-9	1.39
COc1ccc(CNC(=O)Cn2ccnc2-c2ccnc(N3CCCC3)c2)cc1	12	-1.42
CC(NC(=O)NC(C)(C)c1ccc2c(c1)OCO2)C1CCCO1 (centres undefined)	-7	1.13
COc1cccc(C2=NO[C@H](C(=O)N3CCCC3)C2)c1	-11	1.65
Cc1ccc(NC(=O)Cn2c(=O)n(Cc3ccc4c(c3)OCO4)c(=O)c3ccccc32)c(C)c1	6	-0.66
COc1cc(OC)c2ncnc(NC3CCN(C(=O)C(C)C)CC3)c2c1	-1	0.24
CCc1nn(C)cc1CNc1cnccc1N1CCCC1	-13	2.09
CCn1c(CCc2cccc(NC(=O)Nc3cc(F)ccc3F)c2)nc2ccccc21	-1	0.17
Cc1cc(-c2cc(S(=O)(=O)N3C[C@H](O)[C@@H](F)C3)c(C)s2)[nH]n1	-19	2.18
COc1ccc(-n2c(CN3CCCC3)n[nH]c2=O)c(C)c1	-9	0.87
CCC(=O)NCc1ccc(-c2noc(-c3cnccn3)n2)s1	5	-0.56
Cc1ncsc1CN(C)[C@H]1CCN(C(C)(C)C)C1=O	-15	2
CCOC(=O)c1[nH]cnc1CNc1ncnc(CC)c1F	-14	2.45
CCn1nc(C(=O)Nc2cc(C)no2)ccc1=O	10	-1.41
CCOC(=O)NC1CCC(OC(=O)c2ccc(Cn3cncn3)cc2)CC1 (centres undefined)	-13	2.41
Cc1ccc(CNS(=O)(=O)c2c(C)[nH]c(C)c2-c2nnc(C)o2)cc1	-7	0.88
CN(CC1(CO)CCCC1)C(=O)c1cc(CO)ccn1	-1	0.11
O=C(Nc1ccccc1)C1CCN(C(=O)c2ccc3c(c2)CCC3)CC1	-15	1.96
Cc1cccn2c(=O)cc(CNc3ccccc3C(=O)N3CCC[C@H](O)C3)nc12	-2	0.36
COc1ccc(CN2CC[C@H](c3nnc(COc4ccc(F)cc4)o3)C2)cc1	13	-1.56
C[C@H]1CN(C(=O)c2ccc3ccccc3n2)C[C@@H]1c1nc(-c2ccncc2)no1	-4	0.44
Cc1ccc(C(=O)N2CCC(c3cc(N)on3)CC2)cc1	-9	1.43

Structure (SMILES)	% Inhibition [%]	Z score
Cc1cc(S(=O)(=O)n2c(/C=C/c3cccc(Br)c3)nc3ccccc32)ccc1F	-5	0.77
O=C(CC1CCCCC1)N1C[C@H](c2nnc(-c3ccncc3)o2)C2(CCOCC2)C1	-1	0.19
COC(=O)C[C@H]1CCCN1C(=O)c1n[nH]c(C)c1C(F)(F)F	-4	0.46
O=C(O)[C@H]1CN(C(=O)CCc2ccncc2)C[C@@H]1c1ccc(F)cc1	7	-1.31
CN(Cc1ccc2c(c1)OCO2)C(=O)c1ccc(C(=O)O)s1	3	-0.58
CCc1nc(C)sc1CNC(=O)COC(C)C	-1	0.14
C[C@@H](C(=O)NCCCn1ccnn1)n1ccnc1	-7	1.01
COC[C@H]1CN(C)CC12CCN(Cc1ccc(Cl)c(F)c1)CC2	-9	1.03
Cn1nc(C2CC2)cc1C(=O)NCc1noc(-c2cccc(F)c2)n1	-11	1.91
CCOCC1CCN(C(=O)CN2CCC(C)C2)C1 (centres undefined)	7	-1.25
CCOCC(=O)NCCCn1ccnc1	-2	0.47
O=C(NCC1(CO)CC1)NC1CC1C1CCCCC1 (centres undefined)	-14	2.17
C=CCN(CC(=O)N1CCC1)C1CCCC1	-31	3.61
FCCOc1cccc(NCc2cccc3cn[nH]c23)c1	-3	0.48
CCCc1nnc(N2C[C@H](CCC)[C@@H](C(=O)O)C2)s1	6	-1.2
CC1(C(=O)O)CN(C(=O)c2csc(C(C)(C)C)n2)C1	-9	1.21
C[C@@H](CC(N)=O)NCC1(c2c(F)cccc2F)CC1	3	-0.5
COc1ccccc1OCC(=O)Nc1ccc2c(c1)OCCCO2	-18	2.89
CN(C)C(=O)CCNS(=O)(=O)c1ccc(Cl)cc1	-3	0.52
CCN(CC)Cc1nnc2sc(-c3ccc4ccccc4c3)nn12	-6	0.83
COc1nccc(N2CCO[C@H](c3ccc(F)cc3)C2)c1C#N	-4	0.84

— ChEMBL document CHEMBL4888484, “Replenishing the malaria drug discovery pipeline: Screening and hit evaluation of the MMV Hit Generation Library 1 (HGL1) against asexual blood stage Plasmodium falciparum ,using a nano luciferase reporter read-out” (2022)
